In US20210253657A1 (IL DONG PHARMACEUTICAL, published 2021):

Target: T1, human NRP1 extracellular domain (ECD) (human, UniProt O14786 22-856)
T1 construct: extracellular domain; Immobilized on a CM5 chip for SPR; also called NRP1 ECD; human NRP1 ECDs
T1 sequence (looked up): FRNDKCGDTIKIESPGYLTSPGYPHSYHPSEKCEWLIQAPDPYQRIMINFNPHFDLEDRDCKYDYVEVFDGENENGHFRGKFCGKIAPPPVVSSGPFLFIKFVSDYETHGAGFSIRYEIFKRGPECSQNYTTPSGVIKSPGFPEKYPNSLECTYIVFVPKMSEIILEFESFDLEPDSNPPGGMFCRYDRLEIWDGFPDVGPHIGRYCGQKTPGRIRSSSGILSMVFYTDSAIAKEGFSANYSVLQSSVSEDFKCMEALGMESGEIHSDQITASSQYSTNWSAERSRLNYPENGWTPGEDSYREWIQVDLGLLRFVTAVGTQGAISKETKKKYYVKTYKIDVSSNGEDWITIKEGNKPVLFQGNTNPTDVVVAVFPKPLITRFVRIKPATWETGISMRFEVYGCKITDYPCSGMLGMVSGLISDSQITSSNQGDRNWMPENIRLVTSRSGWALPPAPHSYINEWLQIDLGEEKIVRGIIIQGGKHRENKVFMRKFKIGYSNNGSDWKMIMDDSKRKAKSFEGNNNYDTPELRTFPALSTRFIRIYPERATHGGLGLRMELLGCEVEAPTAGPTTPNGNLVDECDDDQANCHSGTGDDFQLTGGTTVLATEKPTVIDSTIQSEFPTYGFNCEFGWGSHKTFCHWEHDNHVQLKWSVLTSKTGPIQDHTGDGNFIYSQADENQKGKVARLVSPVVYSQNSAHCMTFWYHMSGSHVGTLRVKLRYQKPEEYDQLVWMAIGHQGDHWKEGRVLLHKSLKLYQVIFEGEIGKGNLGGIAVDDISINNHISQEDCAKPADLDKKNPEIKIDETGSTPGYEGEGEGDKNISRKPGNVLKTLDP
Experiment: SPR (Biacore T200), human NRP1 ECD on a CM5 chip, 1:1 Langmuir model

B1: Avastin-TPP11 fusion protein (antibody, human IgG1, kappa)
heavy: EVQLVESGGGLVQPGGSLRLSCAASGYTFTNYGMNWVRQAPGKGLEWVGWINTYTGEPTYAADFKRRFTFSLDTSKSTAYLQMNSLRAEDTAVYYCAKYPHYYGSSHWYFDVWGQGTLVTVSS[skipping human IgG1 constant region]GGGGSGGGGSGGGGSHTPGNSKPTRTPRR
light: DIQMTQSPSSLSASVGDRVTITCSASQDISNYLNWYQQKPGKAPKVLIYFTSSLHSGVPSRFSGSGSGTDFTLTISSLQPEDFATYYCQQYSTVPWTFGQGTKVEIKRTVAAPSVFIFPPSDEQLKSGTASVVCLLNNFYPREAKVQWKVDNALQSGNSQESVTEQDSKDSTYSLSSTLTLSKADYEKHKVYACEVTHQGLSSPVTKSFNRGEC
B1 gave a Kd of 15.7 nM.
